Results: the supplement of paper PMC10126150
Values marked as one replicate rest on one cluster of the flow cell; about a third of the high ones do not repeat.

Tested on: ATP
Assay: switch fluorescence ratio, 500 uM ATP over buffer (Cy3 cluster intensity, sum of 5 cycles each) (fold (ratio)); higher = stronger signal-on switching upon ATP binding; sequences stand for … in TCGTCGGCAGCGTCAGATGTGTATAAGAGACAGTTTTTTTTTTTTTTTTTTTTTTTTT…TC
Settings: aptamer strand: ATP DNA aptamer (quencher-CACCTGGGGGAGTATTGCGGAGGAAGG + anchor), 100 nM annealed; ATP concentration: 500 uM; one replicate
Outline: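 Per cluster, summed Cy3 intensity from the target cycles was divided by that from the buffer cycles to give the fluorescence ratio, then averaged per switch-domain sequence. Clusters outside 100-1000 RFU were excluded. The Cy3-labelled switching-strand clusters, on a modified Illumina MiSeq flow-cell, were annealed to 100 nM quencher-labelled ATP aptamer and imaged in selection buffer, then after 15 min with 500 uM ATP at 22 °C, for five cycles with NaOH stripping and re-annealing between them.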
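Note: ATP exposure 15 min at 22 °C before imaging.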

Sequence	switch fluorescence ratio
TGACGGGGCC	0.958
GGATCAGAGC	0.949
GTGTAAAATG	0.972
TTATTTCCT	1.04
CCTCGGTCTA	2.43
TTAGATTAGG	0.99
GTACGCAGGC	2.7
TCGTATCGGT	0.976
TGATGATTGA	0.977
GTCCGGTGAT	0.995
AGCAGGGGAG	0.993
GCGATAGTCG	1.08
TCACTTACTT	1.16
GAAACTCCCC	1.99
TGGATGCACA	0.95
GGACTATCAC	1.1
ACACGCAATT	2.43
CATGTGACTT	0.964
AAAGGTACCA	1.06
TCGTTGGTCT	0.959
ACTTAGGTCT	1.01
AGCTTGGCGC	1.02
TCCGGGAGTA	1.12

Sequence	switch fluorescence ratio
AGTAGCTCAG	1.02
CCTTGAGGTT	1.05
TTTAAAGTAA	1.04
CAGGCGCCCT	0.987
TGGCGCTTAT	0.971
GTCCCTAATA	1.04
TTGGCTAGCG	0.968
TTATTTTCG	0.958
TGAGTAATCG	1.09
GGGAGTTCGT	1.02
GGCGTTCTGA	0.93
TAAGCATTTT	0.989
AGGACTCTTG	0.977
GCGCACCATG	0.973
AAAGTGATCC	1.17
CGAGAGATTT	1.02
GGCGTGAGCA	0.989
CGTCGCTGTT	0.993
GTGGTATCTA	1
AGTCTTAGTT	0.965
CAAGTTTTCA	1.02
TTAAAGAAGC	1.04
GGATTCGTCA	1

Sequence	switch fluorescence ratio
CCTTTGGCAA	4.82
CTACTTAGCA	1.09
CGCTCCAGAT	1.08
TTCCACACGG	1.05
TAGTCGAAT	0.989
CATTCACGCA	1.43
ATCGCCCCAC	1.23
GTCAAACACT	1.07
GTGTTATTTC	0.921
CTATGGGTAC	1.02
CTCTGAGACA	0.965
CAGGAAAAAG	1.02
CCATCCGGCC	1.55
CATGTCACGT	1.03
TCGTCTATTC	1.18
TCGGTATAAG	0.98
CTGTCTGGCG	1.01
ATTTCCGTGC	1.12
CAGGACCCCA	1.05
CTATAAGCCC	0.977
GTGTGGAGAG	1.01
ATCAGTAAGG	0.997
TAGCGGGGAA	0.982

Sequence	switch fluorescence ratio
CATTCAGCCC	1.02
CGCGATGGGA	1.03
ACTATCACGT	1.19
GATTTATTAC	1.08
TGTCGGGGCA	0.958
TGTGAGAACG	1.04
AAAAACGAAA	0.94
GGAGGGCTTC	0.955
AAGTAAAAGG	1.03
ATGGGTTACA	0.975
GACCGTGACC	1.22
GCTATAGACA	1.05
GCCGCTCTGA	1.04
GACCGCATGA	2
GGAGTGCTAT	0.99
AATTTTGGCC	0.969
ACAAATTTTG	1.01
TACGACTGTG	1.03
GTCTTAAACC	1.07
TTCTAACAT	0.988
TTGCGTTAGA	1.02
TATTTGCGGT	0.982
GGAAGCATGG	1.12

Sequence	switch fluorescence ratio
TCTTTACTGG	1.05
TACCTCGGGG	0.953
TCACTCAGAT	1.01
GCGTTCCTGC	0.972
TAACTGGGAA	0.992
CAGCCGGTCG	0.992
ATACGATCGT	0.979
TGACACACTA	1.41
TCCCTTTTTG	0.959
ATCGATTGTG	1.08
TCTGGCGTCG	1.02
GCGCATCCAT	1.01
TTATGCGAAG	0.98
TGAGGTCTGC	1.01
ATCGTAGTAT	0.999
TATTATTAT	1.05
TAGTTTCCGT	1.04
CCATGGTTCC	1.02
GCATATTGC	1.11
GTGGATCGGA	0.986
CCATAGTTCT	0.991
CGGATGCTCC	1.08
TTTCTGAAGC	1.32

Sequence	switch fluorescence ratio
GAATGACTTG	1
GTGTGGAAG	0.955
CATTGTCTGG	0.992
TATCCCCGGG	0.985
CTGTTTCTGC	1.02
GCTCACAGAT	1.02
TATGGTTGA	0.963
CCTGCCCACC	1.48
CTGGTGACTT	1
AAATGCGGA	1.01
CCTGTTCTGT	1.35
TGTCGATTAG	1.03
CGGTATGGGC	0.978
AGAACAAGAG	1.06
GATGGCGTCG	0.974
GAAATGTGT	0.954
ACAAATACGA	1.14
TAGTCCCG	1
GCTACCGTTG	1.05
TCCTAAAAAG	1.01
GACTTAAAT	0.99
TGACGATTGG	1
GAGTGGGTCC	1.02

Sequence	switch fluorescence ratio
AGGTGGGGGT	0.99
CCCAATTGAA	1.02
ATTTGTAGGG	0.986
CCTGGTGTG	1.1
AGGCCAAACT	1.01
GCAGAATGTA	1.02
GCATAGTGCG	1.01
TCGTTCGTTG	1.01
CCCAACCGCG	1.41
TGTGTAGGAG	0.98
ACAGAATTGA	0.977
TCGCAGGTT	1.36
ATGTGTTCCA	0.985
CGCGGTACTG	3.7
CATCGGCCGG	1
ACGAACGCCT	1.59
TAGAACACGC	1.04
GCTAGCGTAT	1.08
ATCTGTGAGT	0.972
